Measurements: PubChem BioAssay (Tox21)
Values joined by “and” are separate entries in the source; they are usually repeats but may differ in a detail not shown here. Identical values can stand only once. Inconclusive means that the source gave no clear call. Such entries were picked first, then a sample of the others. For part of these data: Potencies of inconclusive entries are doubtful fits and often do not repeat. Active and inactive are the calls of the source. Unless noted, calls follow the shape of the dose curve; as a rule, active = well fitted curve in the direction sought with a large enough effect in the repeat runs; inconclusive = weak or mixed curves; inactive = no such curve, though single readings can be large; an effect the other way counts as inactive or inconclusive.

Legend:
[1] = qHTS assay to identify small molecule antagonists of the estrogen related receptor (ERR) signaling pathway - cell viability counter screen (AID 1224818)
Outline: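 Viability of ERR cells, CellTiter-Fluor fluorescence; 17.5 h compound exposure at 37 C, DMSO vehicle; 30 min reagent incubation at 37 C/5% CO2.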

[2] = target: Nuclear receptor subfamily 1 group I member 3 (Homo sapiens) (UniProt Q14994); assay: qHTS assay to identify small molecule agonists of the constitutive androstane receptor (CAR) signaling pathway (AID 1224839); also: nearly all actives have a fitted effect of over 15% in size
Sequence of UniProt Q14994 (Q14994 whole entry, looked up): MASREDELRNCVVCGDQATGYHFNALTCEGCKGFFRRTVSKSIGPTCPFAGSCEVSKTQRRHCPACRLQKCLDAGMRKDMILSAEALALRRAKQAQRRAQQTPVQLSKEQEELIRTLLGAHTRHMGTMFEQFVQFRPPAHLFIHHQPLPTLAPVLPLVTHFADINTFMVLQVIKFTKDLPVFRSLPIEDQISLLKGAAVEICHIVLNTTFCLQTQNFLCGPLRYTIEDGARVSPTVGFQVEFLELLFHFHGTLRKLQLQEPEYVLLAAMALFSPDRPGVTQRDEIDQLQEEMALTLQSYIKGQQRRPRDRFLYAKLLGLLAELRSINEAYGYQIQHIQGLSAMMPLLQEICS
Outline: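 HepG2-CYP2B6-hCAR cells, 2500/well, 4 h pre-incubation; compounds 15 conc.; PK11195 0.75 uM final; 24 h, 37 C/5% CO2; ONE-Glo luciferase read.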

[3] = qHTS assay to identify small molecule agonists of the retinoic acid receptor (RAR) signaling pathway (AID 1159553); settings: C3RL4 RARE luciferase reporter, agonist, 6 h; activation: at 73.3 µM (top of the series) unless noted
Outline: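 In this cell-based screen, 1,000 C3RL4 cells per well were cultured overnight, dosed with test chemicals in DMSO for 6 hr, and assessed for RARE luciferase luminescence.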

[4] = target: Thyrotropin receptor (Homo sapiens) (UniProt P16473); assay: qHTS assay to identify small molecule agonists of the thyroid stimulating hormone receptor (TSHR) signaling pathway (AID 1224843; calls by dose curve; also: nearly all actives have a fitted effect of over 45% in size; as to activation: % is scaled to controls: 0 for no effect and ±100 for the full control effect); settings: TSHR-HEK293 cells, cAMP HTRF, agonist mode, 30 min; activation: at 92.4 µM (top of the series) unless noted
Sequence of UniProt P16473 (P16473 whole entry, looked up): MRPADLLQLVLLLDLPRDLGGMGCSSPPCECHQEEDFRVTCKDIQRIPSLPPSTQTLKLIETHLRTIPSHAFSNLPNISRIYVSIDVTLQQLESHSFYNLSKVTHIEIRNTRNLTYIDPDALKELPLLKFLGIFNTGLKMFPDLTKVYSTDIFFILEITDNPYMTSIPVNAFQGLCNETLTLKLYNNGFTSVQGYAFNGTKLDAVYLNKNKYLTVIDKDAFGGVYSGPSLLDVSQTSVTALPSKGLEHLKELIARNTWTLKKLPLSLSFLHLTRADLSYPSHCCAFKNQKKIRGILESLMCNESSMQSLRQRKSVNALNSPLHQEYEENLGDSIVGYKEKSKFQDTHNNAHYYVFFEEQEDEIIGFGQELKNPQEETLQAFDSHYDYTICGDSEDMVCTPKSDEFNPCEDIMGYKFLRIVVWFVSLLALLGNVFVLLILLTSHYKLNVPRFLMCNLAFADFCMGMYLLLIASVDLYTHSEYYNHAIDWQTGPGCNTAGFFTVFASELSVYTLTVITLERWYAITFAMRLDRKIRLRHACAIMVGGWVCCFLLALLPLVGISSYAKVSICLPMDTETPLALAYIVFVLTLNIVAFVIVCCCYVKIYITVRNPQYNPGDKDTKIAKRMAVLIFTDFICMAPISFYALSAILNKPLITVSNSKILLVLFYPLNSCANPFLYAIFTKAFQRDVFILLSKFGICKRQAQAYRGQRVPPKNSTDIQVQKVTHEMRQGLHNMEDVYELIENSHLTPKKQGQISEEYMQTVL
Outline: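 Using 15 concentrations per compound in triplicate, cAMP production was monitored in TSHR-HEK293 cells after 30 min compound incubation at RT; HTRF reagents followed, with fluorescence intensity recorded after 1 h.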

[5] = qHTS assay to identify small molecule antagonists of the estrogen related receptor signaling pathway with the pleiotropic PPARgamma coactivator (PGC) cell viability counter screen (AID 1224822)
Outline: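 17.5 h compound treatment of PGC/ERR cells at 37 C; readout CellTiter-Fluor fluorescence; run alongside the PGC/ERR antagonist screen to flag cytotoxic compounds.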

[6] = qHTS assay to identify small molecule antagonists of the estrogen related receptor (ERR) signaling pathway (AID 1224819; also: nearly all actives have a fitted effect of over 50% in size)
Outline: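 Seed ERR cells 2,000/well; rest 6 h at 37 C/5% CO2; pin compounds in DMSO; incubate 18 h at 37 C; add One-Glo; wait 30 min at room temperature; measure luminescence.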

[7] = test system: estrogen-related receptor alpha (ERRalpha) with PGC-1alpha coactivator, human; assay: qHTS assay to identify small molecule antagonists of the estrogen related receptor signaling pathway with the pleiotropic PPARgamma coactivator (PGC) (AID 1224821; calls by dose curve; also: nearly all actives have a fitted effect of over 50% in size)
Outline: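 PGC/ERR reporter cells; 6 h pre-incubation 37 C/5% CO2; pin-tool compound in DMSO, 18 h 37 C; One-Glo added, 30 min RT; luminescence read. qHTS antagonist mode.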

[8] = qHTS assay to identify small molecule antagonists of the estrogen related receptor signaling pathway with the pleiotropic PPARgamma coactivator (PGC) from Tox21 10K library - cell viability counter screen (AID 1224840; active = well fitted cell-killing curve with a large enough effect in the repeat runs, not every such curve was filed as active; inconclusive = weak or mixed curves, or effect the other way; inactive = no such curve, though single readings can be large or run the other way; also: nearly all actives have a fitted effect of over 40% in size)
Outline: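 Readout: fluorescence intensity from CellTiter-Fluor after 30 min at 37 C/5% CO2. Preceded by 17.5 h treatment of PGC/ERR cells with DMSO-dissolved compounds, added 6 h post-seeding.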

[9] = qHTS assay to identify small molecule antagonists of the estrogen related receptor signaling pathway with the pleiotropic PPARgamma coactivator (PGC) from Tox21 10K library (AID 1224841; call rule not given here; also: actives are mostly falling curves and most rising ones were filed inactive; nearly all actives have a fitted effect of over 50% in size)
Outline: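 One-Glo luminescence, measured after half an hour at room temperature, quantified reporter output of PGC/ERR cells. These had been plated at 2,000 per well, incubated 6 h, dosed with compounds in DMSO, then kept 18 h at 37 C.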

[10] = qHTS assay to identify small molecule agonists of the hypoxia (HIF-1) signaling pathway - cell viability counter screen (AID 1224844; calls by dose curve; also: nearly all actives have a fitted effect of over 50% in size)
Outline: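 In this counter screen, HRE-bla ME-180 cell viability after 17 hrs of compound exposure at 37C was read by CellTiter-Glo luminescence, multiplexed with the beta-lactamase reporter measurement.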

[11] = qHTS assay to identify small molecule agonists of the constitutive androstane receptor (CAR) signaling pathway - cell viability counter screen (AID 1224836); also: nearly all actives have a fitted effect of over 45% in size
Outline: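 HepG2-CYP2B6-hCAR, 2500 cells/well, 4 h pre-incubation; cpd 15 conc + PK11195 0.75 uM final; 23 h, 37 C/5% CO2; CellTiter-Fluor, fluorescence.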

[12] = target: Nuclear receptor subfamily 1 group I member 3 (Homo sapiens) (UniProt Q14994); assay: qHTS assay to identify small molecule antagonists of the constitutive androstane receptor (CAR) signaling pathway (AID 1224838); also: nearly all actives have a fitted effect of over 40% in size
Outline: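 Inhibition of CITCO-driven (50 nM final) CYP2B6 reporter expression is measured in HepG2 cells stably carrying hCAR. Fifteen compound concentrations are applied for 24 h at 37 C, followed by luciferase luminescence.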
Potency is read from the fitted curve at half-maximal effect; tags tell the direction and shape of the fitted curve or compound fluorescence and quenching.

**Q.** Which Potency [1] does the source give for `CCCCOCCOCCOCc1cc2c(cc1CCC)OCO2` here?
**A.** Its Potency is “inactive”.

**Q.** And the Potency [2]?
**A.** The Potency was active: 7.79 µM and active: 11.9 µM.

**Q.** For `O=C1OC(=O)c2cc(-c3ccc4c(c3)C(=O)OC4=O)ccc21`, which Potency [3] is on record?
**A.** The Potency was inconclusive: 77 µM [activator, single point].

**Q.** What about the activation [4] of the same compound?
**A.** Its activation is inconclusive: -24.2%.

**Q.** Which Potency [5] does the source give for `CN(C)CCN(Cc1cccs1)c1ccccn1` here?
**A.** Its Potency is “inactive”.

**Q.** For `O=C1Cc2cc(CCN3CCN(c4nsc5ccccc45)CC3)c(Cl)cc2N1`, which Potency [1] is on record?
**A.** Its Potency is inconclusive: 29.8 µM [cytotoxic, single point].

**Q.** What about the Potency [6] of the same compound?
**A.** Its Potency is active: 20.3 µM.

**Q.** What about the Potency [7] of the same compound?
**A.** The Potency was inconclusive: 28.7 µM [inhibitor].

**Q.** And the Potency [5]?
**A.** Its Potency is inconclusive: 31 µM [cytotoxic].

**Q.** And the Potency [8]?
**A.** Its Potency is inconclusive: 33.5 µM [cytotoxic].

**Q.** What about the Potency [9] of the same compound?
**A.** The Potency was inconclusive: 13.3 µM [falling, partial curve].

**Q.** What about the Potency [10] of the same compound?
**A.** The Potency was inconclusive: 23.9 µM [cytotoxic].

**Q.** Which Potency [6] does the source give for `c1ccc2occc2c1` here?
**A.** The Potency was “inactive”.

**Q.** And the Potency [7]?
**A.** Its Potency is “inactive”.

**Q.** What about the Potency [4] of the same compound?
**A.** Its Potency is active: 13.7 µM.

**Q.** For `COc1ccc2nc(S(=O)Cc3ncc(C)c(OC)c3C)[nH]c2c1` (stereo not given), which Potency [3] is on record?
**A.** The Potency was active: 67.8 µM and inconclusive: 37.6 µM [inhibitor, single point].

**Q.** What about the Potency [11] of the same compound?
**A.** Its Potency is inconclusive: 67.8 µM [cytotoxic, partial curve, poor fit].

**Q.** And the Potency [8]?
**A.** Its Potency is inconclusive: 67.8 µM [cytotoxic, single point].

**Q.** And the Potency [10]?
**A.** The Potency was inconclusive: 54.3 µM [cytotoxic, single point].

**Q.** For `CCCCCCOC(=O)c1ccc(O)cc1`, which Potency [3] is on record?
**A.** The Potency was active: 4.33 µM and active: 1.93 µM.

**Q.** And the Potency [11]?
**A.** The Potency was inconclusive: 244 µM [cytotoxic, partial curve, poor fit].

**Q.** What about the Potency [8] of the same compound?
**A.** The Potency was inconclusive: 77 µM [cytotoxic, single point].

**Q.** What about the Potency [10] of the same compound?
**A.** The Potency was inconclusive: 61.7 µM [cytotoxic, partial curve, poor fit].

**Q.** With `CN(C)[C@@H]1C(=O)C(C(N)=O)=C(O)[C@@]2(O)C(=O)C3=C(O)c4c(O)ccc(Cl)c4[C@@H](O)[C@H]3C[C@@H]12` as the compound, how does the Potency [6] read?
**A.** Its Potency is inconclusive: 18.8 µM [inhibitor, partial curve].

**Q.** And the Potency [5]?
**A.** Its Potency is “inactive”.

**Q.** And the Potency [9]?
**A.** The Potency was inconclusive: 33.5 µM [falling, single point].

**Q.** Which Potency [3] does the source give for `OC1(c2ccc(Cl)c(C(F)(F)F)c2)CCN(CCCC(c2ccc(F)cc2)c2ccc(F)cc2)CC1` here?
**A.** The Potency was inconclusive: 13.3 µM [inhibitor].

**Q.** What about the Potency [12] of the same compound?
**A.** The Potency was active: 13.3 µM.

**Q.** And the Potency [8]?
**A.** The Potency was active: 18.8 µM.

**Q.** And the Potency [9]?
**A.** Its Potency is active: 29.8 µM.
